Measured values: the supplement of paper PMC5655136
Values come from read counts of a selection and are noisy.

System: NB7
Test: fold depletion of shRNA, plasmid library share / infected cells without Dox share (9 days) (ratio); higher = more depleted after infection (more toxic, leaky expression from a Tet-inducible vector; NB7 is a neuroblastoma line without caspase-8)
Description: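 Pooled lethality screen in NB7 neuroblastoma cells infected with Dox-inducible pTIP shRNA libraries. The libraries tile every 21-mer of the Venus, CD95L or CD95 ORF / 3'UTR; each hairpin is the 21-nt sense sequence + CTCGAG loop + antisense. Cells were cultured 9 days with or without 100 ng/ml Dox. shRNA representation was measured by deep sequencing of the genomic inserts, normalised to the total reads per subpool and averaged over technical replicates. Fold depletion is the plasmid library share / infected cells without Dox share (mean of 2 biological replicates), and the -Dox/+Dox share ratio is the mean of 4 replicate pairings; higher values mean more depletion (toxicity).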

[1] = shRNA pool: CD95L ORF + CD95L 3'UTR + Venus libraries
[2] = shRNA pool: CD95 ORF + CD95 3'UTR + Venus libraries
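Note: shRNA barcodes quantified by deep sequencing of PCR amplicons from cellular DNA, counts expressed as percent of each subpool, ratio averaged over two biological duplicates.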

Sequence | fold depletion of shRNA [1] | fold depletion of shRNA [2]
AAAAAAAGGAGCTGAGGAAAG | 5.32 | 
AAAAAAGCCAATCTTTGTACT |  | 1.02
AAAAAATACTTAATAGTCCAC |  | 2.44
AAAAACAACAAATTCAGTTCT |  | 1.53
AAAAAGCAGCTACCAGGTGTT | 1.26 | 
AAAAAGCCAATCTTTGTACTC |  | 1.01
AAAAAGTATATGTTAGGATAC | 0.721 | 
AAAAATACTTAATAGTCCACC |  | 1.29
AAAAATCATTGATTGTCAGCT | 2.42 | 
AAAACAAACTTCATCAAGAGT |  | 1.4
AAAACAACAAATTCAGTTCTG |  | 1.12
AAAACATGCAGAAAGCACAGA |  | 1.11
AAAACATGTAATAAAAAGTAT | 0.875 | 
AAAACATTAAATTATAATGTT |  | 0.722
AAAACCAAGGTTCTCATGAAT |  | 0.961
AAAACCTGCTACAAATGGCAG |  | 1.01
AAAACTACCTACTTCTTTCTC |  | 1.76
AAAAGATTCTTAATAGCTGGC |  | 1.66
AAAAGCAGCTACCAGGTGTTC | 1.54 | 
AAAAGCATTTTGAGCAGGAGA |  | 1.68
AAAAGCCAATCTTTGTACTCT |  | 1.21
AAAAGGAAGACTAGAGGCTTG | 1.05 | 
AAAAGGACACCTTTTAACTCA | 1.7 | 

Sequence | fold depletion of shRNA [1] | fold depletion of shRNA [2]
AAAAGGAGCTGAGGAAAGTGG | 0.336 | 
AAAAGGCAAGACTGCCCTTAG |  | 2.28
AAAAGTACGTAATTAAATAAT |  | 0.917
AAAAGTGTTAATGCCCAAGTG |  | 2.02
AAAATACTTAATAGTCCACCA |  | 1.02
AAAATAGATGAGATCAAGAAT |  | 1.14
AAAATAGATTCTTATTTTTCC |  | 0.897
AAAATATAGGTAAAAGTACGT |  | 2.06
AAAATCATCATCTGGATTTAG |  | 1.47
AAAATCATTGATTGTCAGCTA | 1.31 | 
AAAATCTAGTTGGGAAAACAA |  | 2.14
AAAATGTCTGTAGCTCCTCAA | 2.48 | 
AAAATGTTCAATAATGTCCCA |  | 0.834
AAAATTCAAACTTCAGAAATG |  | 0.99
AAAATTCAGACTATCATCCTC |  | 1.03
AAACAAACTTCATCAAGAGTA |  | 0.967
AAACAACAAATTCAGTTCTGA |  | 2.19
AAACAGTGGCAATAAATTTAT |  | 0.833
AAACATGCAGAAAGCACAGAA |  | 2.03
AAACATGGAAATATCACCAAA |  | 0.912
AAACATGTAATAAAAAGTATA | 0.626 | 
AAACATTAAATTATAATGTTT |  | 0.796
AAACCAAACTTTTTTTGTAAC |  | 1.23

Sequence | fold depletion of shRNA [1] | fold depletion of shRNA [2]
AAACCAAGGTTCTCATGAATC |  | 0.981
AAACCTGCTACAAATGGCAGC |  | 1.05
AAACGGCCACAAGTTCAGCGT | 0.927 | 3.48
AAACTAACAGATAAGCAAGAG | 0.899 | 
AAACTACCTACTTCTTTCTCA |  | 0.982
AAACTGAAGCAGATACCTGGA |  | 0.823
AAACTGCACCCGGACCCAGAA |  | 1.04
AAACTGGGCTGTACTTTGTAT | 0.835 | 
AAACTGTGAAGATAGTTATAA |  | 0.758
AAACTTCAGAAATGAAATCCA |  | 1.33
AAACTTCATCAAGAGTAAATG |  | 1.14
AAACTTTGTTTATAACTCTGA |  | 0.921
AAACTTTTTTTGTAACTCTAC |  | 0.619
AAAGAACTTCCATTTATGGAG |  | 1.33
AAAGAATGGTGTCAATGAAGC |  | 0.666
AAAGACCCCAACGAGAAGCGC | 0.609 | 0.78
AAAGACCTTTGCACAGTTTAT |  | 4.03
AAAGAGAGAATGTAGATATTG | 1.04 | 
AAAGAGGCCAATGCCCCACTG | 1.37 | 
AAAGAGGCTGAAAGAGGCCAA | 1.38 | 
AAAGATCTCAAAAAAGCCAAT |  | 1.72
AAAGATGATAAAATAGATTCT |  | 0.953
AAAGATTAAGATTATGCTCTG |  | 1.19

Sequence | fold depletion of shRNA [1] | fold depletion of shRNA [2]
AAAGATTCTTAATAGCTGGCT |  | 1.37
AAAGCACAGAAAGGAAAACCA |  | 1.39
AAAGCAGCTACCAGGTGTTCT | 0.73 | 
AAAGCATTTTGAGCAGGAGAG |  | 1.12
AAAGCCAATCTTTGTACTCTT |  | 0.939
AAAGCCCATTTTTCTTCCAAA |  | 3.03
AAAGCTAGGGACTGCACAGTC |  | 0.568
AAAGGAAAACCAAGGTTCTCA |  | 1.21
AAAGGAAGACTAGAGGCTTGC | 1.25 | 
AAAGGAAGTACAGAAAACATG |  | 0.993
AAAGGACACCTTTTAACTCAC | 0.888 | 
AAAGGCAAGACTGCCCTTAGA |  | 6.08
AAAGGCTTTGTTCGAAAGAAT |  | 1.68
AAAGTACGTAATTAAATAATG |  | 0.803
AAAGTAGCTTTGTGACATGTC |  | 0.718
AAAGTATATGTATTTGAGTGC |  | 2.38
AAAGTGTTAATGCCCAAGTGA |  | 4.71
AAAGTTCAACTGCTTCGTAAT |  | 2.36
AAAGTTTGTATTAAATGTGAA |  | 0.872
AAATAAGGCTCTACCTCAAAG |  | 1.13
AAATAATATTTATATTTCTGT |  | 0.913
AAATACTGCTTGGTTTTTTAC |  | 2.32
AAATACTTAATAGTCCACCAA |  | 1.03

Sequence | fold depletion of shRNA [1] | fold depletion of shRNA [2]
AAATAGATGAGATCAAGAATG |  | 1.15
AAATAGATTCTTATTTTTCCC |  | 1.14
AAATAGGAGTGTATGCAGAGG |  | 2.88
AAATATAGGTAAAAGTACGTA |  | 1.51
AAATATATCACCACTATTGCT |  | 1.57
AAATATCACCAAAAAATACTT |  | 1.11
AAATATCAGTTACTGAACAGG |  | 1.82
AAATATCTTTGAAAGTTTGTA |  | 0.922
AAATATGGGTTGCATTTGGTC | 1.36 | 
AAATATTTATGTAGATGTGCA | 0.961 | 
AAATCATTGATTGTCAGCTAC | 0.699 | 
AAATCCTGAAACAGTGGCAAT |  | 4.67
AAATCTAGTTGGGAAAACAAA |  | 1.99
AAATGAAAACATGTAATAAAA | 0.488 | 
AAATGAAATCCAAAGCTTGGT |  | 2.81
AAATGCAGAAGATGTAGATTG |  | 0.976
AAATGCATATCCTGAGCCATC | 1.01 | 
AAATGGAGGAATATGACGGAA | 1.72 | 
AAATGGCAGCTTATACATAGC |  | 0.47
AAATGTAAACTGTGAAGATAG |  | 1.5
AAATGTCTATCCACAGGCTAA |  | 1.49
AAATGTCTGTAGCTCCTCAAC | 18.9 | 
